In US20230383007A1 (BIOSION, published 2023) one finds Kd, koff and kon data, which are given here for nine molecules.

To fix the notation:
B1: 01-9F-CDR-V8-Fc (Fc fusion)
heavy: QVQLVESGGGSVQAGGSLRLSCVVSGLPYERYCVAWFRQGPGKEREGVARILSEGTTSYSESVKGRFTISKDNAKNTLYLQMNSLKSEDTATYYCAAEAFRPFTPSEGDCTTVLGIDYWGKGTPVTVSS[… human IgG1 Fc …]
notes: Heavy chain only antibody (VHH-Fc); tested as cell supernatant; also called 01-9F-CDR-Fc-V8
B2: 01-9F-CDR-V4-Fc (Fc fusion)
heavy: QVQLVESGGGSVQAGGSLRLSCVVSGLPYERYCVAWFRQGPGKEREGVARILSEGTTSYSDSVKGRFTISKDNAKNTLYLQMNSLKSEDTATYYCAAEAFRPFTPSEGDCTTVLGIDYWGKGTPVTVSS[… human IgG1 Fc …]
notes: Heavy chain only antibody (VHH-Fc); tested as cell supernatant; also called 01-9F-CDR-Fc-V4
B3: 01-9F-CDR-V7-Fc (Fc fusion)
heavy: QVQLVESGGGSVQAGGSLRLSCVVSGLPYERYCVAWFRQGPGKEREGVARILSDATTSYSDSVKGRFTISKDNAKNTLYLQMNSLKSEDTATYYCAAEAFRPFTPSDADCTTVLGIDYWGKGTPVTVSS[… human IgG1 Fc …]
notes: Heavy chain only antibody (VHH-Fc); tested as cell supernatant; also called 01-9F-CDR-Fc-V7
B4: 01-9F-CDR-V3-Fc (Fc fusion)
heavy: QVQLVESGGGSVQAGGSLRLSCVVSGLPYERYCVAWFRQGPGKEREGVARILSDGTTSYSDSVKGRFTISKDNAKNTLYLQMNSLKSEDTATYYCAAEAFRPFTPSIGDCTTVLGIDYWGKGTPVTVSS[… human IgG1 Fc …]
notes: Heavy chain only antibody (VHH-Fc); tested as cell supernatant; also called 01-9F-CDR-Fc-V3
B5: 01-9F-CDR-V5-Fc (Fc fusion)
heavy: QVQLVESGGGSVQAGGSLRLSCVVSGLPYERYCVAWFRQGPGKEREGVARILSDATTSYSDSVKGRFTISKDNAKNTLYLQMNSLKSEDTATYYCAAEAFRPFTPSEGDCTTVLGIDYWGKGTPVTVSS[… human IgG1 Fc …]
notes: also called 01-9F-CDR-Fc-V5
B6: 01-9F-CDR-V9-Fc (Fc fusion)
heavy: QVQLVESGGGSVQAGGSLRLSCVVSGLPYERYCVAWFRQGPGKEREGVARILSDATTSYSESVKGRFTISKDNAKNTLYLQMNSLKSEDTATYYCAAEAFRPFTPSEGDCTTVLGIDYWGKGTPVTVSS[… human IgG1 Fc …]
notes: also called 01-9F-CDR-Fc-V9
B7: 01-9F-CDR-V10-Fc (Fc fusion)
heavy: QVQLVESGGGSVQAGGSLRLSCVVSGLPYERYCVAWFRQGPGKEREGVARILSEGTTSYSDTVKGRFTISKDNAKNTLYLQMNSLKSEDTATYYCAAEAFRPFTPSDADCTTVLGIDYWGKGTPVTVSS[… human IgG1 Fc …]
notes: Heavy chain only antibody (VHH-Fc); tested as cell supernatant; also called 01-9F-CDR-Fc-V10
B8: 01-9F-CDR-V6-Fc (Fc fusion)
heavy: QVQLVESGGGSVQAGGSLRLSCVVSGLPYERYCVAWFRQGPGKEREGVARILSEGTTSYSDSVKGRFTISKDNAKNTLYLQMNSLKSEDTATYYCAAEAFRPFTPSDADCTTVLGIDYWGKGTPVTVSS[… human IgG1 Fc …]
notes: Heavy chain only antibody (VHH-Fc); tested as cell supernatant; also called 01-9F-CDR-Fc-V6
B9: 01-9F-Fc (Fc fusion)
heavy: QVQLVESGGGSVQAGGSLRLSCVVSGLPYERYCVAWFRQGPGKEREGVARILSDGTTSYSDSVKGRFTISKDNAKNTLYLQMNSLKSEDTATYYCAAEAFRPFTPSDGDCTTVLGIDYWGKGTPVTVSS[… human IgG1 Fc …]
notes: C terminus of the VHH linked to the N terminus of the Fc region; also called heavy chain only antibody 01-9F-Fc

One assay concerns the target T1, human TROP2-his protein (human, UniProt P09758 27-274).
T1 construct: also called biotin labeled human TROP2-his protein
T1 sequence: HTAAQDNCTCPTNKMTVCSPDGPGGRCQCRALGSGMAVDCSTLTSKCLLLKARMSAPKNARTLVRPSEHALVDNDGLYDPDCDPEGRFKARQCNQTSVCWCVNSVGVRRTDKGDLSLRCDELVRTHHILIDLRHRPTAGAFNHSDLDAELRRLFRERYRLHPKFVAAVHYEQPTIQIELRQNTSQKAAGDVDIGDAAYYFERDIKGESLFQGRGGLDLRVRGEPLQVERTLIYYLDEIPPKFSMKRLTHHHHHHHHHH
The assay is described as follows: SPR Biacore; cell supernatant captured on anti-human IgG chip, 40 nM human TROP2-his as analyte. From the text: (§1) The purified anti-TROP2 mouse monoclonal antibodies (mAbs) were characterized for binding affinity and binding kinetics by Biacore T200 system (GE healthcare, Pittsburgh, PA, USA). Briefly, goat anti-human IgG (GE healthcare, Cat #BR100839, Human Antibody Capture Kit) was covalently linked to a CM5 chip (carboxy methyl dextran coated chip from GE healthcare #BR100530) via primary amines, using a standard amine coupling kit (GE healthcare, Pittsburgh, PA, USA) provided by Biacore. Un-reacted moieties on the chip (biosensor) surface were blocked with ethanolamine. The anti-TROP2 antibodies of the disclosure and the benchmark at the concentration of 2 μg/ml were respectively flowed onto the chip at a flow rate of 10 μL/min. Then, serially diluted human TROP2-his protein (prepared in-house with SEQ ID NO: 16), or cynomolgus TROP2-his protein (prepared in-house with SEQ ID NO: 19), 2-fold dilution in HBS-EP⁺ buffer (provided by Biacore) starting at 160 nM, were flowed onto the chip at a flow rate of 30 μL/min. The antigen-antibody association kinetics was followed for 2 minutes and the dissociation kinetics was followed for 10 minutes. The association and dissociation curves were fit to a 1:1 Langmuir binding model using BIAcore evaluation software.
(§2) For the BIAcore test, cell supernatants containing the 01-9F-Fc variants were respectively flowed onto the chip instead of the purified anti-TROP2 antibodies, at a flow rate of 10 μL/min, and 40 nM human TROP2-his proteins (prepared in-house with SEQ ID NO: 16) in HBS-EP⁺ buffer (provided by Biacore), instead of serially diluted human TROP2-his proteins, were flowed onto the chip at a flow rate of 30 μL/min.
(Surface plasmon resonance follows binding to a sensor surface in real time, without labels.)
In the case of B1, the Kd (as a rule, the equilibrium constant for the complex coming apart) was determined as 0.215 nM; the koff (usually the first-order rate constant of dissociation) was found to be 6.92e-05 s⁻¹; the kon (usually the second-order rate constant of association) worked out at 323000 M⁻¹ s⁻¹.
As for B2, binding was put at a Kd of 0.219 nM, the koff was found to be 7.01e-05 s⁻¹ and the kon was found to be 320000 M⁻¹ s⁻¹.
Consider B3, for which the Kd was found to be 0.261 nM, the dissociation rate constant (koff) was determined as 0.000114 s⁻¹ and the kon came out at 439000 M⁻¹ s⁻¹.
B4: the Kd was 0.45 nM, the koff came out at 0.000117 s⁻¹ and the kon amounted to 261000 M⁻¹ s⁻¹.
For B5, in that order: 0.108 nM, 3.99e-05 s⁻¹ and 368000 M⁻¹ s⁻¹.
As to B6, the Kd was found to be 0.254 nM, the koff came out at 0.000105 s⁻¹ and the kon is 413000 M⁻¹ s⁻¹.
For B7, in that order: 0.259 nM, 0.000117 s⁻¹ and 450000 M⁻¹ s⁻¹.
For B8, in that order: 0.197 nM, 6.62e-05 s⁻¹ and 336000 M⁻¹ s⁻¹.

For a further assay, the target named is T1, human TROP2-his protein. The assay is described as follows: SPR Biacore; antibody captured on anti-human IgG chip, 40 nM human TROP2-his as analyte.
Text: as §1, §2
B9: the Kd is 0.338 nM, the off-rate constant (koff) came out at 0.000154 s⁻¹ and the association rate constant (kon) was 456000 M⁻¹ s⁻¹.
